{
  "source": "paper PMC8611056",
  "target": "IsdB NEAT1-NEAT2 (aa residues 48-480) (S. aureus SH1000) (UniProt Q2FZF0)",
  "sequence (Q2FZF0 48-480)": "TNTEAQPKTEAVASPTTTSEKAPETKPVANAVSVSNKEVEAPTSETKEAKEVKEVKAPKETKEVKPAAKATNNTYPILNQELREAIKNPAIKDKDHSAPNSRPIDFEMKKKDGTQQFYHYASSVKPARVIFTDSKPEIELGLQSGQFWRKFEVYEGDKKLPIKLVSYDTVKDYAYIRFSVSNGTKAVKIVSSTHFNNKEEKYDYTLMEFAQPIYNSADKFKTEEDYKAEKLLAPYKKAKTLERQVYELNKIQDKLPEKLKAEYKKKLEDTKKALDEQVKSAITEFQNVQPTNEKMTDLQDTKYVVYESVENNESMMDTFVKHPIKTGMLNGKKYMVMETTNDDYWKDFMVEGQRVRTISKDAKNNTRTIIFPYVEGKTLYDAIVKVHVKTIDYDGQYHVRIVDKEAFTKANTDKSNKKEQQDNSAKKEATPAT",
  "experiment": "ELISA; recombinant CWA proteins coated at 1 μg/well (0.1 M sodium carbonate, pH 9.5), 1 μg/well of vWF in PBS for 1 h at 22 °C, detected with rabbit anti-vWF IgG; also with ristocetin-treated vWF on immobilised IsdB",
  "data": [
    {"substance": "human von Willebrand factor (a stretch of the chain, chain not printed) (natural protein)", "values": [
      {"measurement": "increase of binding of ristocetin-treated vWF over untreated vWF", "value": 40, "unit": "%"}
    ]}
  ]
}
